The list shows a part of the results. At the low end of the ranking the order means little.

For this experiment, the target named is SIX1 homeodomain (reference allele) (UniProt Q15475). The experiment is described as follows: universal protein binding microarray. The note with it: Universal all-10-mer PBM (8x60K, AMADID 030236), 300 nM GST-tagged protein, Alexa Fluor 488 anti-GST; buffer, salt, pH and temperature not stated; high values mean tight binding; most listed sequences are background and not binding sites; double strand, one strand shown.
On to GTACCGCA, for which the binding signal was -0.0232 E-score. For GGCACGAA, the binding signal is -0.193 E-score. The figure for AGTACCAC is -0.0344 E-score; for CACCAATC it is 0.0887 E-score; for AAAACCCG it is -0.124 E-score. Under GATATCAA stands 0.453 E-score; under GAGAAGAA, -0.188 E-score; under AGCTGCAT, 0.00651 E-score.

Regarding AGTCGCGG, the binding signal stood at 0.0149 E-score. For the sequence AGGGAGAA, the binding signal is -0.039 E-score.

Take CGAAATAC: the binding signal is 0.157 E-score.

For ACTCGCTG, the binding signal was -0.06 E-score. The figure for CATGACCA is -0.0852 E-score.

Regarding AATAGCTG, the binding signal was -0.168 E-score. The figure for GGACTATA is 0.0929 E-score; for GAACCCCA it is 0.0943 E-score; for ATAAGCGA it is 0.0691 E-score. The figure for AGCCTCAC is -0.148 E-score. The figure for GGTAATCA is -0.152 E-score. Consider CAGGGTAC, for which the binding signal was -0.0175 E-score. In the case of ACGGGACC, the binding signal was -0.3 E-score. As for AAAGCTCA, the binding signal is -0.24 E-score. The figure for AGTACATA is 0.066 E-score; for ACGCATAA it is -0.0512 E-score; for AACGCGCT it is -0.191 E-score. The figure for CCGGGCTA is 0.0313 E-score. Under AATTCTTA stands -0.249 E-score; under TGAAGTAA, -0.15 E-score; under CTGGTGCC, -0.243 E-score. Regarding CGAGCAAC, the binding signal was -0.0911 E-score. Under GCCGTGTA stands 0.102 E-score.

With ACCATAGA, the binding signal amounted to 0.197 E-score.

As to ATAGAGCC, the binding signal was -0.186 E-score. The figure for GGATCTTA is 0.235 E-score. The figure for AAAATGCG is -0.291 E-score.

As to CCTTGCGC, the binding signal was -0.172 E-score.

On to CCTGACAG, for which the binding signal turned out to be 0.0246 E-score. ACATAAGG: the binding signal was -0.251 E-score. Under TGTCGACA stands -0.0857 E-score; under CAACGTGG, -0.053 E-score; under GCACACGC, -0.201 E-score. Regarding AACAGAGG, the binding signal was -0.158 E-score.

In the case of CTCAACCA, the binding signal is -0.086 E-score. The figure for TAATTCAA is -0.0989 E-score.

For CGGAGCCG, the binding signal is -0.0525 E-score. The figure for GAGCACCA is -0.104 E-score; for AAACCTAG it is -0.014 E-score; for ACACGCGC it is 0.0628 E-score. The figure for AACTATGG is -0.0672 E-score; for ACCCTACC it is 0.0415 E-score. With ACTTACTA, the binding signal is -0.131 E-score. Take AGCTGGGA: the binding signal turned out to be 0.0439 E-score. For the sequence CATACTTA, the binding signal is -0.0338 E-score. Under AATGATTA stands 0.0353 E-score. Under CCAGTCCC stands -0.212 E-score; under CGCGTGAC, -0.0266 E-score; under ATCTACGG, 0.092 E-score.

For the sequence CGAGCGAC, the binding signal is -0.182 E-score. The figure for CTTCTATC is 0.0246 E-score. The figure for GCTTTCAA is -0.26 E-score; for CTAACCTA it is -0.164 E-score. The figure for ATCCGGCA is 0.314 E-score; for TATACAAA it is 0.102 E-score; for CATTTAGG it is -0.316 E-score. For the sequence AACGCCCA, the binding signal is -0.11 E-score. Under AATCCATC stands 0.259 E-score; under CTCGACAG, -0.112 E-score. Under AAGCACAA stands -0.161 E-score; under CCAACGCG, -0.0913 E-score.

With AGGTGACG, the binding signal was -0.0351 E-score. The figure for CAGACCTC is -0.153 E-score.

With AGGATAAC, the binding signal worked out at 0.211 E-score.

As to GCTATTCC, the binding signal is -0.0683 E-score. Under CATACTAG stands 0.139 E-score. The figure for GCGTTCGA is -0.206 E-score; for AGTCCCCG it is -0.0149 E-score; for ACCACTTG it is -0.0149 E-score. The figure for CGTTTCGC is -0.225 E-score; for CCGTTACC it is -0.0233 E-score. On to AAATCGTG, for which the binding signal is -0.0955 E-score. Under ACAAGATA stands 0.261 E-score.

CCGATCGA: the binding signal was 0.264 E-score. Turning to GTGATCGA, the binding signal came out at 0.159 E-score. On to ACCCTAAC, for which the binding signal came out at 0.107 E-score. The figure for ATGACCCA is 0.12 E-score. The figure for GACCGACC is -0.0578 E-score.

In the case of AAAAGATC, the binding signal is 0.142 E-score. The figure for ATTACGTC is -0.0934 E-score. For the sequence ATGGCCGA, the binding signal was -0.0551 E-score.

As for AACCTGCC, the binding signal was -0.161 E-score. As to AGGCAATA, the binding signal came out at 0.0823 E-score. Under TGTACGAA stands -0.0746 E-score; under CGTTTTAC, -0.0146 E-score. The figure for GGGCTCCA is -0.152 E-score; for CTGGTTTA it is -0.00696 E-score.

Take ATGTTCCA: the binding signal was -0.192 E-score. Take CGTCGATA: the binding signal amounted to 0.283 E-score. For GATAGATA, the binding signal was 0.364 E-score. Under AGTTTGCG stands -0.064 E-score. The figure for CGTAGAGC is -0.119 E-score; for AGTTCACA it is -0.14 E-score. Under AACAATCC stands 0.113 E-score.

For the sequence CTATGAAG, the binding signal is -0.0539 E-score. Under GGTACGTA stands 0.129 E-score; under CTGACCAA, 0.0219 E-score; under CTGCGCTA, -0.122 E-score. Under CGCGGTGC stands -0.0751 E-score; under ATATCACA, 0.432 E-score. The figure for ACAGGTCT is -0.106 E-score; for AGTTTGAG it is 0.0591 E-score. In the case of AAATCGGA, the binding signal is -0.0926 E-score. Under AAAAACGA stands -0.176 E-score; under GAGAAATA, 0.0402 E-score. The figure for GCCTGTGA is -0.0291 E-score; for TCGGAGAA it is 0.181 E-score. The figure for AATCTTCC is -0.0351 E-score; for AACCTTCC it is -0.233 E-score; for CTTTCTAA it is -0.183 E-score. Regarding CAAGCGGC, the binding signal is -0.301 E-score.

On to AGTGGCTA, for which the binding signal was -0.0982 E-score.

Regarding CGCCATCA, the binding signal is -0.225 E-score. The figure for GCGCACCA is -0.273 E-score; for GTGGCAAA it is -0.116 E-score.

CAAAGCCG: the binding signal was -0.226 E-score.

On to TCACCTCA, for which the binding signal was 0.039 E-score. Under AATCACAT stands -0.0653 E-score. As to GATACAGC, the binding signal is 0.395 E-score. The figure for CAGAAGAC is -0.204 E-score. On to AAGGGCTC, for which the binding signal was -0.228 E-score. The figure for CATATGCG is 0.142 E-score. Turning to CGGGGCGC, the binding signal was 0.108 E-score. The figure for ACAGTTGC is -0.188 E-score; for AGCTAAAG it is -0.117 E-score; for TAGCTCAA it is 0.0467 E-score. Under TCGAGGCA stands 0.0183 E-score; under ACCAACAA, -0.0835 E-score; under AAGTTTCC, -0.252 E-score. Take ATCCCTCG: the binding signal was found to be 0.337 E-score. Under CATTAGCG stands -0.169 E-score; under AAAATTAC, -0.192 E-score; under ATATCAGG, 0.403 E-score. As to GACAAGGC, the binding signal is -0.184 E-score. Regarding GCGTATCA, the binding signal came to 0.481 E-score. The figure for GCGCATCC is 0.0687 E-score. The figure for GAATTGGA is 0.0329 E-score.

For the sequence ATTAATTA, the binding signal is -0.0488 E-score. The figure for GTCGGGCA is -0.0448 E-score. Under CATGCTGG stands -0.0736 E-score; under CACCTAGC, -0.0226 E-score. On to AAAGGGAG, for which the binding signal is -0.138 E-score. The figure for CCATTTCC is -0.255 E-score; for CGACGTTA it is -0.091 E-score; for CAAAAGTA it is 0.0333 E-score. Under CCGAGTTA stands -0.136 E-score.

Take GAGTTGGC: the binding signal is -0.201 E-score. Under ACTCACAA stands -0.0484 E-score; under CCCATCAC, 0.0662 E-score; under AATGCTTC, -0.227 E-score. Under AGGTACTC stands -0.0416 E-score; under GGTGATCA, 0.315 E-score; under AAGGATCA, 0.383 E-score. Under CCTTCCTC stands -0.164 E-score; under CCGGCCGC, -0.128 E-score.

As to ACGCTAAC, the binding signal is -0.21 E-score.

As to AATGACCT, the binding signal was -0.118 E-score. Under ACGTCGAT stands 0.0999 E-score; under AGTGTAGA, 0.0276 E-score; under ATAAGTCA, -0.251 E-score. For CTCTACTA, the binding signal was found to be 0.0214 E-score. Turning to GGGACCTA, the binding signal was -0.0157 E-score. For the sequence CGACCTTA, the binding signal is -0.151 E-score.

Regarding ATCGGCGC, the binding signal turned out to be 0.0546 E-score. Under ATCGACTA stands 0.13 E-score; under AGATGGCG, -0.0391 E-score.

As to TAGTCAGA, the binding signal was -0.179 E-score. Under GAGAGTTA stands -0.141 E-score; under AACGGTTA, -0.146 E-score; under CTAAGACA, 0.0886 E-score.

For the sequence ACGGCGCA, the binding signal is -0.148 E-score. Turning to ATTTAACA, the binding signal was -0.186 E-score. Under ATCTGCGG stands 0.0781 E-score; under CTAGGCAC, -0.114 E-score. Under AAAGTCAC stands -0.356 E-score; under CAGGGTCC, -0.276 E-score; under CCTTTCCG, -0.0548 E-score. The figure for CCAGAATC is 0.0148 E-score. As for CTCTAGAA, the binding signal is -0.0409 E-score. As for CCCCCTTA, the binding signal is -0.0313 E-score. The figure for AACAGAGC is -0.272 E-score; for CGGACCGC it is -0.18 E-score; for AGCCAGCG it is -0.0663 E-score. Turning to AGCGCATG, the binding signal is -0.109 E-score.

CTCCCTGA: the binding signal is -0.0336 E-score. For the sequence ACTATCAC, the binding signal is 0.279 E-score. The figure for AGGTGCTA is -0.149 E-score; for TCTAATCA it is 0.108 E-score; for CAGTACCG it is -0.0432 E-score. Under CTCCGACC stands -0.107 E-score. Under GTATAAAA stands 0.246 E-score; under TGACCACA, -0.153 E-score; under AAAAACGG, -0.135 E-score. ATCTGCAA: the binding signal was 0.116 E-score. The figure for GGCTGGAA is -0.135 E-score; for ACAGCAGA it is -0.115 E-score; for ATGGGAAC it is 0.00488 E-score. The figure for TCACCCCA is 0.129 E-score. Under CTCGGAGA stands 0.0356 E-score; under CTCTATCA, -0.136 E-score; under CACGCGGC, -0.281 E-score. Take ATGGCATA: the binding signal came out at 0.0528 E-score.

For the sequence TAAACGAA, the binding signal was -0.0948 E-score. The figure for GGGGTTGA is 0.0834 E-score; for AAGAGTGC it is -0.286 E-score. The figure for AAATACTA is -0.121 E-score; for AGAGATTC it is 0.0328 E-score. The figure for ATGGCCAC is -0.172 E-score. For the sequence TTAGGAAA, the binding signal is -0.178 E-score.

In the case of AATGTCAG, the binding signal is -0.288 E-score. With AACAATAG, the binding signal was -0.264 E-score.

Source of the values: PMC10668032.
